Measured values: the supplement of paper PMC8728848
The list shows a part of the results.

Experiments:
Test in all cases: glycan array binding signal (z-score within array); higher = stronger binding
Conditions in all cases: glycan notation: IUPAC condensed, linker removed
[1] = target: Fuc(a1-3)[Gal(b1-4)]GlcNAc6S
Summary of the method: (§1)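 The binding signal is a Z-score computed within each array. Data were drawn from 3228 arrays in the Consortium for Functional Glycomics database, restricted to those with a known protein sequence. Scores were averaged over arrays of the same protein sequence at different concentrations or buffers, and over linkers, and negative values can be taken as non-binding.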

[2] = target: Fuc(a1-3)[Gal3S(b1-4)]GlcNAc
Summary of the method: as §1

[3] = target: Fuc(a1-3)[Gal3S(b1-4)]GlcNAc6S
Summary of the method: as §1

[4] = target: Fuc(a1-3)[GalNAc(b1-4)]GlcNAc
Summary of the method: as §1

Fuc(a1-4)GlcNAc = target: Fuc(a1-4)GlcNAc
Summary of the method: as §1

Fuc(b1-3)GlcNAc = target: Fuc(b1-3)GlcNAc
Summary of the method: as §1

Gal(a1-2)Gal = target: Gal(a1-2)Gal
Summary of the method: as §1

Gal(a1-3)Gal = target: Gal(a1-3)Gal
Summary of the method: as §1

Gal(a1-3)Gal(b1-3)GlcNAc = target: Gal(a1-3)Gal(b1-3)GlcNAc
Summary of the method: as §1

[5] = target: Gal(a1-3)Gal(b1-3)GlcNAc(b1-2)Man(a1-3)[Gal(a1-3)Gal(b1-3)GlcNAc(b1-2)Man(a1-6)]Man(b1-4)GlcNAc(b1-4)GlcNAc
Summary of the method: as §1

[6] = target: Gal(a1-3)Gal(b1-3)[Fuc(a1-4)]GlcNAc(b1-2)Man(a1-3)[Gal(a1-3)Gal(b1-3)[Fuc(a1-4)]GlcNAc(b1-2)Man(a1-6)]Man(b1-4)GlcNAc(b1-4)GlcNAc
Summary of the method: as §1

Gal(a1-3)Gal(b1-4)Glc = target: Gal(a1-3)Gal(b1-4)Glc
Summary of the method: as §1

Gal(a1-3)Gal(b1-4)GlcNAc = target: Gal(a1-3)Gal(b1-4)GlcNAc
Summary of the method: as §1

[7] = target: Gal(a1-3)Gal(b1-4)GlcNAc(b1-3)GalNAc
Summary of the method: as §1

[8] = target: Gal(a1-3)Gal(b1-4)[Fuc(a1-3)]GlcNAc
Summary of the method: as §1

[9] = target: Gal(a1-3)Gal(b1-4)[Fuc(a1-3)]GlcNAc(b1-2)Man(a1-3)[Gal(a1-3)Gal(b1-4)[Fuc(a1-3)]GlcNAc(b1-2)Man(a1-6)]Man(b1-4)GlcNAc(b1-4)GlcNAc
Summary of the method: as §1

Gal(a1-3)GalNAc = target: Gal(a1-3)GalNAc
Summary of the method: as §1

[10] = target: Gal(a1-3)[Gal(a1-4)]Gal(b1-4)GlcNAc
Summary of the method: as §1

[11] = target: Gal(a1-4)Gal(b1-3)GlcNAc(b1-2)Man(a1-3)[Gal(a1-4)Gal(b1-3)GlcNAc(b1-2)Man(a1-6)]Man(b1-4)GlcNAc(b1-4)GlcNAc
Summary of the method: as §1

Gal(a1-4)Gal(b1-4)Glc = target: Gal(a1-4)Gal(b1-4)Glc
Summary of the method: as §1

Gal(a1-4)Gal(b1-4)GlcNAc = target: Gal(a1-4)Gal(b1-4)GlcNAc
Summary of the method: as §1

[12] = target: Gal(a1-4)Gal(b1-4)GlcNAc(b1-2)Man(a1-3)[Gal(a1-4)Gal(b1-4)GlcNAc(b1-2)Man(a1-6)]Man(b1-4)GlcNAc(b1-4)GlcNAc
Summary of the method: as §1

[13] = target: Gal(a1-4)Gal(b1-4)GlcNAc(b1-3)Gal(b1-4)Glc
Summary of the method: as §1

Gal(a1-4)GlcNAc = target: Gal(a1-4)GlcNAc
Summary of the method: as §1

Gal(a1-6)Glc = target: Gal(a1-6)Glc
Summary of the method: as §1

Gal(b1-2)Gal = target: Gal(b1-2)Gal
Summary of the method: as §1

Gal(b1-3)Gal = target: Gal(b1-3)Gal
Summary of the method: as §1

Gal(b1-3)Gal(b1-4)GlcNAc = target: Gal(b1-3)Gal(b1-4)GlcNAc
Summary of the method: as §1

[14] = target: Gal(b1-3)Gal(b1-4)GlcNAc(b1-2)Man(a1-3)[Gal(b1-3)Gal(b1-4)GlcNAc(b1-2)Man(a1-6)]Man(b1-4)GlcNAc(b1-4)GlcNAc
Summary of the method: as §1

Gal(b1-3)GalNAc = target: Gal(b1-3)GalNAc
Summary of the method: as §1

[15] = target: Gal(b1-3)GalNAc(a1-3)[Fuc(a1-2)]Gal(b1-4)Glc
Summary of the method: as §1

[16] = target: Gal(b1-3)GalNAc(a1-3)[Fuc(a1-2)]Gal(b1-4)GlcNAc
Summary of the method: as §1

[17] = target: Gal(b1-3)GalNAc(b1-3)Gal(a1-4)Gal(b1-4)Glc
Summary of the method: as §1

[18] = target: Gal(b1-3)GalNAc(b1-4)Gal(b1-4)Glc
Summary of the method: as §1

[19] = target: Gal(b1-3)GalNAc(b1-4)[Neu5Ac(a2-3)]Gal(b1-4)Glc
Summary of the method: as §1

Gal(b1-3)GlcNAc = target: Gal(b1-3)GlcNAc
Summary of the method: as §1

[20] = target: Gal(b1-3)GlcNAc(a1-6)Gal(b1-4)GlcNAc
Summary of the method: as §1

B1: CLEC-1 (Homo sapiens), Q9NZH3 (protein)
chain: MQAKYSSTRDMLDDDGDTTMSLHSQASATTRHPEPRRTEHRAPSSTWRPVALTLLTLCLVLLIGLAAWGLLFFQYYQLSNTGQDTISQMEERLGNTSQELQSLQVQNIKLAGSLQHVAEKLCRELYNKAGAHRCSPCTEQWKWHGDNCYQFYKDSKSWEDCKYFCLSENSTMLKINKQEDLEFAASQSYSEFFYSYWTGLLRPDSGKAWLWMDGTPFTSELFHIIIDVTSPRSRDCVAILNGMIFSKDCKELKRCVCERRAGMVKPESLHVPPETLGEGD
Question: B1 was tested. Which “glycan array binding signal (z-score)” value [1] did it give?
Answer: 0.057

Question: And the “glycan array binding signal (z-score)” value [2]?
Answer: -0.18

Question: What about the “glycan array binding signal (z-score)” value [3] of the same binder?
Answer: -0.521

Question: And the “glycan array binding signal (z-score)” value [4]?
Answer: -0.232

Question: And the “glycan array binding signal (z-score)” value (Fuc(a1-4)GlcNAc)?
Answer: -0.383

Question: And the “glycan array binding signal (z-score)” value (Fuc(b1-3)GlcNAc)?
Answer: -0.203

Question: What about the “glycan array binding signal (z-score)” value (Gal(a1-2)Gal) of the same binder?
Answer: -0.406

Question: And the “glycan array binding signal (z-score)” value (Gal(a1-3)Gal)?
Answer: -0.376

Question: And the “glycan array binding signal (z-score)” value (Gal(a1-3)Gal(b1-3)GlcNAc)?
Answer: -0.401

Question: What about the “glycan array binding signal (z-score)” value [5] of the same binder?
Answer: 3.16

Question: What about the “glycan array binding signal (z-score)” value [6] of the same binder?
Answer: 0.413

Question: And the “glycan array binding signal (z-score)” value (Gal(a1-3)Gal(b1-4)Glc)?
Answer: -0.224

Question: What about the “glycan array binding signal (z-score)” value (Gal(a1-3)Gal(b1-4)GlcNAc) of the same binder?
Answer: 0.093

Question: What about the “glycan array binding signal (z-score)” value [7] of the same binder?
Answer: -0.291

Question: What about the “glycan array binding signal (z-score)” value [8] of the same binder?
Answer: 0.587

Question: What about the “glycan array binding signal (z-score)” value [9] of the same binder?
Answer: -0.162

Question: And the “glycan array binding signal (z-score)” value (Gal(a1-3)GalNAc)?
Answer: 0.025

Question: What about the “glycan array binding signal (z-score)” value [10] of the same binder?
Answer: -0.278

Question: And the “glycan array binding signal (z-score)” value [11]?
Answer: 0.449

Question: What about the “glycan array binding signal (z-score)” value (Gal(a1-4)Gal(b1-4)Glc) of the same binder?
Answer: -0.591

Question: What about the “glycan array binding signal (z-score)” value (Gal(a1-4)Gal(b1-4)GlcNAc) of the same binder?
Answer: -0.187

Question: What about the “glycan array binding signal (z-score)” value [12] of the same binder?
Answer: 5.92

Question: And the “glycan array binding signal (z-score)” value [13]?
Answer: -0.372

Question: What about the “glycan array binding signal (z-score)” value (Gal(a1-4)GlcNAc) of the same binder?
Answer: -0.035

Question: And the “glycan array binding signal (z-score)” value (Gal(a1-6)Glc)?
Answer: 0.261

Question: What about the “glycan array binding signal (z-score)” value (Gal(b1-2)Gal) of the same binder?
Answer: -0.482

Question: And the “glycan array binding signal (z-score)” value (Gal(b1-3)Gal)?
Answer: -0.166

Question: What about the “glycan array binding signal (z-score)” value (Gal(b1-3)Gal(b1-4)GlcNAc) of the same binder?
Answer: -0.338

Question: What about the “glycan array binding signal (z-score)” value [14] of the same binder?
Answer: -0.326

Question: And the “glycan array binding signal (z-score)” value (Gal(b1-3)GalNAc)?
Answer: 0.068

Question: What about the “glycan array binding signal (z-score)” value [15] of the same binder?
Answer: -0.299

Question: And the “glycan array binding signal (z-score)” value [16]?
Answer: -0.405

Question: And the “glycan array binding signal (z-score)” value [17]?
Answer: 0.409

Question: What about the “glycan array binding signal (z-score)” value [18] of the same binder?
Answer: -0.087

Question: And the “glycan array binding signal (z-score)” value [19]?
Answer: -0.053

Question: What about the “glycan array binding signal (z-score)” value (Gal(b1-3)GlcNAc) of the same binder?
Answer: -0.265

Question: What about the “glycan array binding signal (z-score)” value [20] of the same binder?
Answer: -0.543
